Measured values taken from US12419305B2, “Antimicrobial compositions” (Firmenich SA, priority 2018, dated 2025).
“And” between values parts separate entries of the source, which are not always exact repeats. Identical values can stand only once. The name of at least one read-out is uncertain.

Key:
S. aureus ATCC 6538 = experiment: BCT test (bacterial contact time), 60 s, log reduction / effect fraction; CI by Compusyn; type: cell-based, Staphylococcus aureus; conditions: in 25% EtOH
Summary of the method: (§1)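 Combination index comes from dose and effect fraction of each blend and its single components, with values under 0.9 taken as synergistic and above 1.0 as antagonistic. Effect reflects log reduction in viable count after short contact of ~1×10^8 bacteria/mL with ethanolic test solutions.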

S. haemolyticus 114126 = experiment: BCT test (bacterial contact time), 120 s, log reduction / effect fraction; CI by Compusyn; type: cell-based, Staphylococcus haemolyticus; conditions: contact 120 s, 25% EtOH
Summary of the method: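 S. haemolyticus 114126 (skin isolate), grown to OD600 1-2 in BHI-TW80 and resuspended at 1-5×10^8 CFU/mL, was mixed 1:1 with ethanolic perfume compositions or ethanol alone for 45, 60 or 120 s. Viable counts came from serial-dilution regrowth (37 °C, turbidity OD600), giving log reduction versus ethanol control; CI was computed from concentration–effect fraction pairs.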

C. xerosis ATCC 373 = experiment: as above; type: cell-based, Corynebacterium xerosis; conditions: contact 120 s, 25% EtOH
Summary of the method: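 C. xerosis cells grown in BHI-TW80 at 37 °C to OD600 1.6 were exposed to ethanolic perfume compositions for 120 s. Viable counts (log CFU) came from serial dilution and OD600 growth after 37 °C incubation, giving log reduction versus ethanol control. CI was computed from concentrations and effect fractions, with <0.9 taken as synergy.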

[1] = system: Pseudomonas aeruginosa ATCC 15442; experiment: BCT test (bacterial contact time), 60 s, log reduction / effect fraction; CI by Compusyn; type: cell-based; conditions: BCT 60 s, in 25% EtOH
Summary of the method: as §1

[2] = system: Salmonella enterica ATCC 10708; experiment: as above; type: cell-based; conditions: BCT 60 s, in 25% EtOH
Summary of the method: as §1

`CC(C)=CCC/C(C)=C\CO` [Nerol, (Z)-3,7-dimethyl-2,6-octadien-1-ol] was tested, and the Effect fraction (S. aureus ATCC 6538; dose 0.0625 % w/v, 60 s) was 0.17, the Effect fraction (S. aureus ATCC 6538; dose 0.075 % w/v, 60 s) was 0.42 and the Effect fraction (S. aureus ATCC 6538; dose 0.100 % w/v, 60 s) was 0.92. For the same compound, the Effect fraction (S. aureus ATCC 6538; dose 0.125 % w/v, 60 s) was 0.96, the Effect fraction (S. aureus ATCC 6538; dose 0.150 % w/v, 60 s) was 0.99 and the Effect fraction (S. haemolyticus 114126; dose 0.05% w/v) was 0.01. The Effect fraction (S. haemolyticus 114126; dose 0.1% w/v) was 0.18, the Effect fraction (S. haemolyticus 114126; dose 0.125% w/v) was 0.53 and the Effect fraction (S. haemolyticus 114126; dose 0.15% w/v) was 0.83. The Effect fraction (S. haemolyticus 114126; dose 0.175% w/v) was 1.00, the Effect fraction (C. xerosis ATCC 373; dose 0.08% w/v) was −0.01 and the Effect fraction (C. xerosis ATCC 373; dose 0.1% w/v) was 0.07. The Effect fraction (C. xerosis ATCC 373; dose 0.12% w/v) was 0.36, the Effect fraction (C. xerosis ATCC 373; dose 0.14% w/v) was 0.66 and the Effect fraction (C. xerosis ATCC 373; dose 0.16% w/v) was 0.97. For the same compound, the Effect fraction ([1]; Dose 0.025 % w/v) was 0.05, the Effect fraction ([1]; Dose 0.05 % w/v) was 0.48 and the Effect fraction ([1]; Dose 0.0625 % w/v) was 0.76. It also gave an Effect fraction ([1]; Dose 0.075 % w/v) of 1.00, an Effect fraction ([1]; Dose 0.1 % w/v) of 1.00 and an Effect fraction ([2]; Dose 0.01 % w/v) of 0.000. The Effect fraction ([2]; Dose 0.03 % w/v) was 0.090, the Effect fraction ([2]; Dose 0.04 % w/v) was 0.280 and the Effect fraction ([2]; Dose 0.05 % w/v) was 0.710. It also gave an Effect fraction ([2]; Dose 0.06 % w/v) of 0.920.
In the case of `CC(CCO)CCc1ccccc1` (centres unmarked) [Phenylhexanol, 3-methyl-5-phenyl-1-pentanol], the Effect fraction (S. aureus ATCC 6538; dose 0.050 % w/v, 60 s) is reported as 0.12 and 0.08 and 0.10, the Effect fraction (S. aureus ATCC 6538; dose 0.060 % w/v, 60 s) is reported as 0.43 and 0.29 and 0.23 and the Effect fraction (S. aureus ATCC 6538; dose 0.070 % w/v, 60 s) is reported as 0.86 and 0.64 and 0.61. For the same compound, the Effect fraction (S. aureus ATCC 6538; dose 0.080 % w/v, 60 s) was 0.90 and 0.97 and 0.86, the Effect fraction (S. aureus ATCC 6538; dose 0.090 % w/v, 60 s) was 0.96 and 1.00 and the Log reduction (S. aureus ATCC 6538; dose 0.090 % w/v, 60 s) was 7.3. For the same compound, the Effect fraction (S. haemolyticus 114126; dose 0.05% w/v) was 0.00, the Log reduction (S. haemolyticus 114126; dose 0.05% w/v) was −0.1 and the Log reduction (S. haemolyticus 114126; dose 0.05% w/v, listed as phenylhexanol) was 0.0. For the same compound, the Effect fraction (S. haemolyticus 114126; dose 0.1% w/v) was 0.17, the Log reduction (S. haemolyticus 114126; dose 0.1% w/v) was 0.9 and the Effect fraction (S. haemolyticus 114126; dose 0.1% w/v, listed as phenylhexanol) was 0.17 and 0.10. The Effect fraction (S. haemolyticus 114126; dose 0.125% w/v) was 0.53, the Log reduction (S. haemolyticus 114126; dose 0.125% w/v) was 3.9 and the Effect fraction (S. haemolyticus 114126; dose 0.125% w/v, listed as phenylhexanol) was 0.53 and 0.40. For the same compound, the Effect fraction (S. haemolyticus 114126; dose 0.15% w/v) was 0.84, the Log reduction (S. haemolyticus 114126; dose 0.15% w/v) was 6.7 and the Effect fraction (S. haemolyticus 114126; dose 0.15% w/v, listed as phenylhexanol) was 0.84 and 0.75. The Effect fraction (S. haemolyticus 114126; dose 0.175% w/v) was 0.95 and 0.82, the Effect fraction (S. haemolyticus 114126; dose 0.2% w/v) was 0.95 and the Effect fraction (C. xerosis ATCC 373; dose 0.15% w/v) was 0.35 and 0.51 and 0.59. The Effect fraction (C. xerosis ATCC 373; dose 0.2% w/v) was 0.59 and 0.7 and 0.69, the Effect fraction (C. xerosis ATCC 373; dose 0.25% w/v) was 0.76 and 0.81 and the Log reduction (C. xerosis ATCC 373; dose 0.25% w/v) was 5.2. The Effect fraction (C. xerosis ATCC 373; dose 0.3% w/v) was 0.83 and 0.94 and 0.88, the Log reduction ([1]; Dose 0.025 % w/v) was 0.2 and 0.1 and 0 and the Effect fraction ([1]; Dose 0.05 % w/v) was 0.50 and 0.38. For the same compound, the Effect fraction ([1]; Dose 0.06 % w/v) was 0.71 and 0.57 and 0.64, the Effect fraction ([1]; Dose 0.07 % w/v) was 0.95 and 0.73 and 1.00 and the Effect fraction ([1]; Dose 0.08 % w/v) was 1.00. The Log reduction ([1]; Dose 0.08 % w/v) was 7.4, the Log reduction ([2]; Dose 0.02 % w/v) was 0.4 and 0.1 and 0.2 and the Effect fraction ([2]; Dose 0.045 % w/v) was 1.00 and 0.68 and 0.95.
With `C/C=C/c1ccc(O)c(OC)c1` [Isoeugenol, 2-Methoxy-4-(prop-1-en-1-yl)phenol] the Effect fraction (S. aureus ATCC 6538; dose 0.100 % w/v, 60 s) was 0.15 and 0.09, the Effect fraction (S. aureus ATCC 6538; dose 0.125 % w/v, 60 s) was 0.49 and 0.38 and the Effect fraction (S. aureus ATCC 6538; dose 0.150 % w/v, 60 s) was 0.75 and 0.69. The Effect fraction (S. aureus ATCC 6538; dose 0.200 % w/v, 60 s) was 0.99 and 1.00, the Log reduction (S. aureus ATCC 6538; dose 0.200 % w/v, 60 s) was 7.2 and the Effect fraction (S. haemolyticus 114126; dose 0.15% w/v) was −0.04. For the same compound, the Effect fraction (S. haemolyticus 114126; dose 0.2% w/v) was 0.07 and 0.05, the Log reduction (S. haemolyticus 114126; dose 0.2% w/v) was 0.4 and the Effect fraction (S. haemolyticus 114126; dose 0.25% w/v) was 0.30. The Effect fraction (S. haemolyticus 114126; dose 0.3% w/v) was 0.52 and 0.50, the Effect fraction (S. haemolyticus 114126; dose 0.35% w/v) was 0.78 and 0.53 and the Effect fraction (S. haemolyticus 114126; dose 0.4% w/v) was 1.00 and 0.97. The Log reduction (S. haemolyticus 114126; dose 0.4% w/v) was 7.3, the Effect fraction (C. xerosis ATCC 373; dose 0.25% w/v) was 0.35 and 0.22 and the Effect fraction (C. xerosis ATCC 373; dose 0.3% w/v) was 0.48 and 0.44. The Log reduction (C. xerosis ATCC 373; dose 0.3% w/v) was 3.3, the Effect fraction (C. xerosis ATCC 373; dose 0.4% w/v) was 0.71 and 0.63 and the Log reduction (C. xerosis ATCC 373; dose 0.4% w/v) was 4.7. The Effect fraction (C. xerosis ATCC 373; dose 0.5% w/v) was 0.89 and 1.00, the Effect fraction (C. xerosis ATCC 373; dose 0.6% w/v) was 1.00 and the Effect fraction ([1]; Dose 0.05 % w/v) was 0.02 and 0.01. For the same compound, the Log reduction ([1]; Dose 0.05 % w/v) was 0.1 and 0.0, the Effect fraction ([1]; Dose 0.125 % w/v) was 1.00 and 0.95 and the Effect fraction ([1]; Dose 0.15 % w/v) was 1.00. For the same compound, the Effect fraction ([2]; Dose 0.05 % w/v) was −0.01, the Effect fraction ([2]; Dose 0.06 % w/v) was 0.01 and the Effect fraction ([2]; Dose 0.075 % w/v) was 0.54. It also gave an Effect fraction ([2]; Dose 0.08 % w/v) of 0.53, an Effect fraction ([2]; Dose 0.080 % w/v) of 0.10 and an Effect fraction ([2]; Dose 0.1 % w/v) of 0.34. For the same compound, the Effect fraction ([2]; Dose 0.10 % w/v) was 0.92, the Effect fraction ([2]; Dose 0.110 % w/v) was 1.00 and the Effect fraction ([2]; Dose 0.120 % w/v) was 0.95 and 1.00. The Log reduction ([2]; Dose 0.120 % w/v) was 7.5.
In the case of `C=CCc1ccc(O)c(OC)c1` [Eugenol F, 2-Methoxy-4-(prop-2-en-1-yl)phenol], the Effect fraction (S. aureus ATCC 6538; Dose 0.1 % w/v, BCT 60 s) is reported as 0.11, the Effect fraction (S. aureus ATCC 6538; Dose 0.125 % w/v, BCT 60 s) is reported as 0.21 and the Effect fraction (S. aureus ATCC 6538; Dose 0.15 % w/v, BCT 60 s) is reported as 0.31. The Effect fraction (S. aureus ATCC 6538; Dose 0.175 % w/v, BCT 60 s) was 0.75, the Effect fraction (S. aureus ATCC 6538; dose 0.100 % w/v, 60 s) was 0.09 and 0.12 and the Log reduction (S. aureus ATCC 6538; dose 0.100 % w/v, 60 s) was 0.8. For the same compound, the Effect fraction (S. aureus ATCC 6538; dose 0.125 % w/v, 60 s) was 0.20, the Effect fraction (S. aureus ATCC 6538; dose 0.13 % w/v, 60 s) was 0.23 and the Effect fraction (S. aureus ATCC 6538; dose 0.150 % w/v, 60 s) was 0.30 and 0.44. The Effect fraction (S. aureus ATCC 6538; dose 0.175 % w/v, 60 s) was 0.63 and 0.94, the Effect fraction (S. aureus ATCC 6538; dose 0.200 % w/v, 60 s) was 1.00 and the Effect fraction (S. haemolyticus 114126; dose 0.2% w/v) was 0.04 and 0.08. For the same compound, the Log reduction (S. haemolyticus 114126; dose 0.2% w/v) was 0.6, the Effect fraction (S. haemolyticus 114126; dose 0.25% w/v) was 0.31 and 0.45 and the Effect fraction (S. haemolyticus 114126; dose 0.3% w/v) was 0.64 and 0.95. The Effect fraction (S. haemolyticus 114126; dose 0.35% w/v) was 1.00, the Log reduction (S. haemolyticus 114126; dose 0.35% w/v) was 7.5 and the Effect fraction (C. xerosis ATCC 373; dose 0.1% w/v) was 0.01. For the same compound, the Effect fraction (C. xerosis ATCC 373; dose 0.2% w/v) was 0.06 and 0.05, the Effect fraction (C. xerosis ATCC 373; dose 0.25% w/v) was 0.26 and the Effect fraction (C. xerosis ATCC 373; dose 0.3% w/v) was 0.39 and 0.69. For the same compound, the Effect fraction (C. xerosis ATCC 373; dose 0.4% w/v) was 0.76 and 0.89, the Effect fraction (C. xerosis ATCC 373; dose 0.5% w/v) was 0.94 and 1.00 and the Effect fraction ([1]; Dose 0.05 % w/v) was 0.00. The Log reduction ([1]; Dose 0.05 % w/v) was 0 and −0.3, the Effect fraction ([1]; Dose 0.12 % w/v) was 0.32 and 0.33 and 0.63 and the Effect fraction ([1]; Dose 0.14 % w/v) was 0.51 and 0.81 and 0.92. For the same compound, the Effect fraction ([1]; Dose 0.15 % w/v) was 1.00, the Log reduction ([1]; Dose 0.15 % w/v) was 7.4 and the Log reduction ([2]; Dose 0.05 % w/v) was 0.0 and 0.2. For the same compound, the Effect fraction ([2]; Dose 0.075 % w/v) was 0.13 and 0.11, the Log reduction ([2]; Dose 0.075 % w/v) was 0.8 and the Effect fraction ([2]; Dose 0.1 % w/v) was 0.31 and 0.25. For the same compound, the Effect fraction ([2]; Dose 0.10 % w/v) was 0.25, the Effect fraction ([2]; Dose 0.125 % w/v) was 0.56 and 0.52 and the Effect fraction ([2]; Dose 0.15 % w/v) was 1.00.
